Experimental data from the supplement of paper PMC10037445.
In all, about 2,900 compounds were measured (“IRF Lucia reporter activity, fold change vs agonist alone”: median about 0.9, highest 2% from about 2.8 on). The list shows a part of the results.

Columns and labels:
RAW-Dual [1] = assay: IRF Lucia reporter activity, fold change vs agonist alone; cytotoxicity flag (confluency mask): not cytotoxic; higher = enhanced IRF activity
How it was run: (§1)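 Supernatant from RAW-Dual macrophages was read after 20 hours for IRF by QuantiLuc luminescence and for NF-κB by QuantiBlue absorbance at 620 nm. The cells (50,000 cells/well in DMEM, 384-well plates, 37 °C, 5% CO2) had received 50 nL of library stock by pin tool and, 1 h later, a PRR agonist. Reporter activity is expressed relative to agonist-alone wells as fold change, and wells were flagged cytotoxic if IncuCyte confluency was under 70% of agonist controls in both mask sets.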

RAW-Dual [2] = assay: IRF Lucia reporter activity, fold change vs agonist alone; higher = enhanced IRF activity; details: library stock concentration (final ~1000-fold dilution): 10 mM, agonist: MPLA (TLR4) […]
How it was run: as §1

RAW-Dual [3] = assay: IRF Lucia reporter activity, fold change vs agonist alone; cytotoxicity flag (confluency mask): cytotoxic (confluency <70% of control); higher = enhanced IRF activity
How it was run: as §1

[4] = agonist: 3'3'-cGAMP (STING) 10 ug/mL
[5] = cytotoxicity flag (confluency mask): not cytotoxic
[6] = cytotoxicity flag (confluency mask): cytotoxic (confluency <70% of control)

Structure (SMILES): O=C(CCNNC(=O)c1ccncc1)NCc1ccccc1 (library stock concentration (final ~1000-fold dilution): 10 mM)
- IRF Lucia reporter activity (RAW-Dual [1]; [4]): 1.04
- IRF Lucia reporter activity (RAW-Dual [1]; agonist: LPS (TLR4) 0.1 ug/mL): 1.16

Structure (SMILES): O=C(CCNNC(=O)c1ccncc1)NCc1ccccc1
- IRF Lucia reporter activity (RAW-Dual [2]; [5]): 1.02

Structure (SMILES): Cc1cnc(-c2ccccc2C(C)C)nc1NCc1ccc(-n2ccnn2)cc1
- IRF Lucia reporter activity (RAW-Dual [2]; [5]): 0.691

Structure (SMILES): Cc1cnc(-c2ccccc2C(C)C)nc1NCc1ccc(-n2ccnn2)cc1 (library stock concentration (final ~1000-fold dilution): 10 mM)
- IRF Lucia reporter activity (RAW-Dual [1]; [4]): 0.223
- IRF Lucia reporter activity (RAW-Dual [1]; agonist: LPS (TLR4) 0.1 ug/mL): 0.691

Structure (SMILES): Nc1ccc(-c2ccc3ncc4ccc(=O)n(-c5cccc(C(F)(F)F)c5)c4c3c2)cn1 (library stock concentration (final ~1000-fold dilution): 10 mM)
- IRF Lucia reporter activity (RAW-Dual [3]; [4]): 0.0925
- IRF Lucia reporter activity (RAW-Dual [3]; agonist: LPS (TLR4) 0.1 ug/mL): 1.65

Structure (SMILES): Nc1ccc(-c2ccc3ncc4ccc(=O)n(-c5cccc(C(F)(F)F)c5)c4c3c2)cn1
- IRF Lucia reporter activity (RAW-Dual [2]; [6]): 2.11

Structure (SMILES): COC(=O)C(CCSC)NC(=O)c1ccc(NCC(N)CS)cc1-c1ccccc1.Cl (stereo not given) (library stock concentration (final ~1000-fold dilution): 10 mM)
- IRF Lucia reporter activity (RAW-Dual [1]; [4]): 0.149
- IRF Lucia reporter activity (RAW-Dual [1]; agonist: LPS (TLR4) 0.1 ug/mL): 0.817

Structure (SMILES): COC(=O)C(CCSC)NC(=O)c1ccc(NCC(N)CS)cc1-c1ccccc1.Cl (stereo not given)
- IRF Lucia reporter activity (RAW-Dual [2]; [5]): 0.862

Structure (SMILES): O=c1n(CCCN2CCN(c3cccc(Cl)c3)CC2)nc2ccccn12 (library stock concentration (final ~1000-fold dilution): 10 mM)
- IRF Lucia reporter activity (RAW-Dual [1]; [4]): 0.739
- IRF Lucia reporter activity (RAW-Dual [1]; agonist: LPS (TLR4) 0.1 ug/mL): 1.13

Structure (SMILES): O=c1n(CCCN2CCN(c3cccc(Cl)c3)CC2)nc2ccccn12
- IRF Lucia reporter activity (RAW-Dual [2]; [5]): 1.15

Structure (SMILES): Cc1ccccc1C(C(=O)NC1CCCCC1)N(C(=O)Cn1ccnc1C)c1cccc(F)c1 (stereo not given) (library stock concentration (final ~1000-fold dilution): 10 mM)
- IRF Lucia reporter activity (RAW-Dual [1]; [4]): 0.428
- IRF Lucia reporter activity (RAW-Dual [1]; agonist: LPS (TLR4) 0.1 ug/mL): 0.74

Structure (SMILES): Cc1ccccc1C(C(=O)NC1CCCCC1)N(C(=O)Cn1ccnc1C)c1cccc(F)c1 (stereo not given)
- IRF Lucia reporter activity (RAW-Dual [2]; [5]): 1.05

Structure (SMILES): CC(C)CN(CC(O)C(Cc1ccccc1)NC(=O)OC1CCOC1)S(=O)(=O)c1ccc(N)cc1 (stereo not given)
- IRF Lucia reporter activity (RAW-Dual [2]; [5]): 1.08

Structure (SMILES): CC(C)CN(CC(O)C(Cc1ccccc1)NC(=O)OC1CCOC1)S(=O)(=O)c1ccc(N)cc1 (stereo not given) (library stock concentration (final ~1000-fold dilution): 10 mM)
- IRF Lucia reporter activity (RAW-Dual [1]; [4]): 1.05
- IRF Lucia reporter activity (RAW-Dual [1]; agonist: LPS (TLR4) 0.1 ug/mL): 0.93

Structure (SMILES): C[C@@H]1O[C@@H](O[C@H]2[C@H](OC(=O)[C@]34CCC(C)(C)C[C@H]3C3=CC[C@@H]5[C@@]6(C)C[C@H](O)[C@H](O[C@@H]7O[C@H](CO)[C@@H](O)[C@H](O)[C@H]7O)[C@@](C)(CO)[C@@H]6CC[C@@]5(C)[C@]3(C)CC4)O[C@H](CO)[C@@H](O)[C@@H]2O)[C@H](O)[C@H](O)[C@H]1O[C@@H]1OC[C@@H](O)[C@H](O)[C@H]1O (library stock concentration (final ~1000-fold dilution): 10 mM)
- IRF Lucia reporter activity (RAW-Dual [1]; [4]): 0.937
- IRF Lucia reporter activity (RAW-Dual [1]; agonist: LPS (TLR4) 0.1 ug/mL): 1.09

Structure (SMILES): CC1COC(Nc2ccc3ncnc(Nc4ccc(OCc5nccs5)c(Cl)c4)c3c2)=N1 (stereo not given)
- IRF Lucia reporter activity (RAW-Dual [2]; [5]): 1.24

Structure (SMILES): CC1COC(Nc2ccc3ncnc(Nc4ccc(OCc5nccs5)c(Cl)c4)c3c2)=N1 (stereo not given) (library stock concentration (final ~1000-fold dilution): 10 mM)
- IRF Lucia reporter activity (RAW-Dual [1]; [4]): 0.243
- IRF Lucia reporter activity (RAW-Dual [1]; agonist: LPS (TLR4) 0.1 ug/mL): 1.15

Structure (SMILES): Cc1ccc(-n2nc(C(C)(C)C)cc2NC(=O)NCc2cc(F)ccc2Oc2ccc3c(cnn3CCO)c2)cc1 (library stock concentration (final ~1000-fold dilution): 10 mM)
- IRF Lucia reporter activity (RAW-Dual [1]; [4]): 1.3
- IRF Lucia reporter activity (RAW-Dual [1]; agonist: LPS (TLR4) 0.1 ug/mL): 0.522

Structure (SMILES): O=C(OC(C(F)(F)F)C(F)(F)F)N1CCN(Cc2ccc(C(F)(F)F)cc2N2CCCC2)CC1 (library stock concentration (final ~1000-fold dilution): 10 mM)
- IRF Lucia reporter activity (RAW-Dual [1]; [4]): 1.15
- IRF Lucia reporter activity (RAW-Dual [1]; agonist: LPS (TLR4) 0.1 ug/mL): 1.08

Structure (SMILES): Oc1ccc(-c2nc(-c3ccc(F)cc3)c(-c3ccncc3)[nH]2)cc1
- IRF Lucia reporter activity (RAW-Dual [2]; [5]): 0.862

Structure (SMILES): Oc1ccc(-c2nc(-c3ccc(F)cc3)c(-c3ccncc3)[nH]2)cc1 (library stock concentration (final ~1000-fold dilution): 10 mM)
- IRF Lucia reporter activity (RAW-Dual [1]; [4]): 0.0683
- IRF Lucia reporter activity (RAW-Dual [1]; agonist: LPS (TLR4) 0.1 ug/mL): 1.28

Structure (SMILES): Cl.NCCOCCOCCNC(=O)Cc1ccc(Nc2nc(NCc3ccc(F)cc3)nc(NCC3CCCCC3)n2)cc1
- IRF Lucia reporter activity (RAW-Dual [2]; [6]): 1

Structure (SMILES): Cl.NCCOCCOCCNC(=O)Cc1ccc(Nc2nc(NCc3ccc(F)cc3)nc(NCC3CCCCC3)n2)cc1 (library stock concentration (final ~1000-fold dilution): 10 mM)
- IRF Lucia reporter activity (RAW-Dual [3]; [4]): 0.52
- IRF Lucia reporter activity (RAW-Dual [3]; agonist: LPS (TLR4) 0.1 ug/mL): 0.496

Structure (SMILES): OCCn1cc(-c2cnc3nnn(Cc4ccc5ncccc5c4)c3n2)cn1 (library stock concentration (final ~1000-fold dilution): 10 mM)
- IRF Lucia reporter activity (RAW-Dual [1]; [4]): 0.894
- IRF Lucia reporter activity (RAW-Dual [1]; agonist: LPS (TLR4) 0.1 ug/mL): 0.806

Structure (SMILES): OCCn1cc(-c2cnc3nnn(Cc4ccc5ncccc5c4)c3n2)cn1
- IRF Lucia reporter activity (RAW-Dual [2]; [5]): 1.05

Structure (SMILES): CCCCc1oc2ccccc2c1C(=O)c1cc(I)c(OCCN(CC)CC)c(I)c1.Cl
- IRF Lucia reporter activity (RAW-Dual [2]; [5]): 1.54
